Laboratory results reported in the supplement of paper PMC3334620.
In all, about 33,000 sequences were measured (“E-score (-0.5 to 0.5)”: median about -0.036, highest 2% from about 0.37 on). The list shows a part of the results.

target: T1, Yer064c (UniProt P40041); experiment: PBM E-score (8-mer binding enrichment) (E-score (-0.5 to 0.5)); higher = stronger / more preferred TF binding; most listed sequences are background and not binding sites; conditions: protein concentration: 200 nM; construct: GST-full length
T1 sequence: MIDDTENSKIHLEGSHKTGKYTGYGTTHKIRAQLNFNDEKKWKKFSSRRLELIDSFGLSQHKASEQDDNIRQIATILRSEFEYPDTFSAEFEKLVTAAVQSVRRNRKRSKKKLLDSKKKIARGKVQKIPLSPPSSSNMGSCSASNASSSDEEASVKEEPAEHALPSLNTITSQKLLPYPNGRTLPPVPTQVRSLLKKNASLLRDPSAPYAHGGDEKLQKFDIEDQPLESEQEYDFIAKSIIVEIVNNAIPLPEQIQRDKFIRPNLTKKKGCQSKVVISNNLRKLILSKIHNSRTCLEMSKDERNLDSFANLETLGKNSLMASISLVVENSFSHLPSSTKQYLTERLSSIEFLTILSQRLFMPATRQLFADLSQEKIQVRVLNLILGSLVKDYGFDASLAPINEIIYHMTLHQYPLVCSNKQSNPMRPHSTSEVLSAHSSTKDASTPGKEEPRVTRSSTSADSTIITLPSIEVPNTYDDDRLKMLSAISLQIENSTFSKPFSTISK
In short: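 Yeast transcription factors, full-length or as DNA-binding domains, were expressed with a GST tag using PURExpress in vitro transcription/translation. At about 100-200 nM they were applied to universal all-10-mer Agilent arrays, double-stranded by primer extension on fresh or once-stripped slides. Fluorescent anti-GST detected bound protein, and masliner normalised the scans. E-scores for ungapped eight-base words, pooled with reverse complements, came from the Universal PBM Analysis Suite.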

Sequence | PBM E-score
CGTGTATA | 0.0534
GACATAGA | -0.117
TACCGCCA | -0.125
CGTATGCC | -0.111
CTCAAAAG | 0.0753
GCGCCAGA | -0.097
TCCATTAA | -0.109
TTAGCAAA | -0.00339
GTATCCAC | -0.102
AAAGTGCG | -0.07
ATTCATAG | 0.166
ACCGAACA | 0.0147
CCGGAGCA | -0.289
CAATTGGC | 0.00285
GCTTGTAC | -0.18
AGCTCTGC | -0.211
TGTACAAA | -0.0583
CTGTATAA | -0.033
AGAGTTAG | -0.00282
AATGTAGA | -0.197
AGCTTGCG | -0.167
AAATTAAT | 0.221
TGACGCCA | -0.186
CATATGGA | 0.062
CCTACACC | -0.255

Sequence | PBM E-score
GCCTTAGA | 0.0034
GAGCCGAC | 0.0105
CGCCTATA | -0.111
ATTGCCCA | -0.0349
CTGAGAAG | -0.00418
ACTAACCC | 0.223
GACGGAGA | -0.0412
TCGTGTAA | 0.12
AGTCATCG | 0.492
AGATTCCT | -0.00676
GCCTATAC | -0.241
CAGCGAGG | -0.169
AAACGATT | 0.237
GCATCTGA | -0.00331
CAAGTAAG | 0.0417
ACGAACCA | 0.141
CCATTTGC | -0.0755
CGGCAGAA | -0.25
GGTCACGA | 0.0181
TGGAACCA | 0.109
ATAACCGA | -0.0944
CAAGGTGA | 0.154
ATATGTCA | -0.0581
GCAGTGCC | -0.336
ATGCGTAC | 0.00051

Sequence | PBM E-score
TCACAAGA | 0.172
CGCCGAAC | -0.092
GTTTGCGA | 0.0615
CGCAGCCA | 0.0799
AGTTGGGA | -0.0942
ATAGCCAT | 0.261
GAGTGAGA | 0.143
ATAGCTCG | -0.0461
ACGACACA | 0.0398
CTACCAGA | -0.00486
TGTAATAA | 0.0825
ATTCGACC | 0.00755
CGCGTTCC | -0.194
AACCTGTC | -0.0991
CTGATGAA | 0.0655
GAGTGGGA | -0.0791
CCACGCGG | -0.181
CCCATTAA | -0.0295
AATCATCA | 0.463
CATGGAAA | 0.0483
ACAGCAGG | -0.16
ATGACGGA | -0.0217
GAAGCATA | -0.00207
GCTATTTA | 0.0946
ACGCACTG | -0.213

Sequence | PBM E-score
AAAAGACA | -0.0266
ACTCTGCC | 0.089
CTGTTTAC | -0.0257
CTCCTAAC | 0.0203
ACCGAGAA | -0.0423
AATTCATA | 0.0256
CCAGTTAA | 0.0803
CCATAGAC | -0.0471
GTTATCCA | 0.0527
AACGTAGG | -0.222
GACCGTCC | -0.311
AACACGTA | -0.0281
CAAAGCTC | -0.0324
GAGTAGAC | 0.0494
CCAAACAG | -0.188
GCCAGGAA | -0.00995
AGTGACAT | -0.198
GAGCGCTA | -0.0195
GACGCAAA | -0.146
GCTGACTA | 0.467
ACTATGCA | 0.166
TAGCTTAA | 0.0953
TAATATAA | 0.162
GAAGCGCC | -0.149
ATGCGGTC | -0.044

Sequence | PBM E-score
AATGAGTG | 0.249
CTGATCGC | -0.0451
CCATGCGA | -0.0695
ATCACTAA | 0.133
CCCGCCCC | -0.223
AAGAATCC | 0.0397
CCTGCTAG | -0.0964
AAGGATGC | -0.261
ACATCTCG | -0.0636
AGGCATTC | -0.366
GAGTACCA | 0.252
AAACACCT | 0.129
TATCGTGA | 0.0727
AGTTCCAT | 0.0111
AGGTGTAC | -0.0899
AAGATGTG | 0.0624
GGACTACC | 0.284
ACGCCCAC | -0.131
TTAGACAA | -0.00707
GGCGTCTA | -0.224
GGTTGTGA | 0.0869
GCGCTGAA | -0.211
AAGAAAAA | 0.0602
ATGACCTG | 0.092
ATTACTGA | -0.00514

Sequence | PBM E-score
CTACTGAG | 0.157
TCCAAAGA | 0.165
CCTCAATA | -0.0844
CGTTGCGA | -0.0377
ACGCACCG | -0.11
GATGGATA | 0.0115
ACCTTACT | 0.0671
TAAGGCGA | -0.124
GTACGTAA | -0.0674
AACAGAGT | 0.227
AATGCGAA | -0.0878
ATAACTCG | 0.0398
GTTATAAC | -0.256
CCCAAGAA | 0.00379
AATCCAAT | -0.0757
GCCATAAA | -0.184
GGTAAACC | -0.227
GTCACGCA | 0.167
CAGCAAGC | -0.198
ACTCACTC | 0.371
CACCACTC | -0.00325
ACCACCGG | -0.122
GAGCCCCA | -0.0862
AATTGAAC | -0.015
AGCGGCAA | -0.0935

Sequence | PBM E-score
ACTATAGA | 0.0966
ACCCCTGG | 0.0365
CCATACAG | 0.105
AATCCCTC | -0.0606
AGCGCGCA | -0.132
CGAGCTTC | 0.052
AGAACCTA | -0.129
ATGTCTCG | 0.17
AAGTTGAA | -0.00081
CATTTGCA | -0.0432
CCATACTC | -0.0158
ACCATCTA | -0.191
GCCTATGA | 0.0271
AGTTCAAG | 0.129
GGTGCATA | -0.146
CAAGATCG | -0.0652
CTGTGGAA | 0.0224
CTGTAAGC | -0.0285
CACTGGGC | -0.166
GCTAATCC | -0.145
ATGTAATA | -0.0893
TTGAGAAA | 0.142
